{"source": "the supplement of paper PMC10338343", "note": "± gives the standard deviation. Only a part is listed here, and it is no random draw.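 Also: 1 nM active piRISC with 0.1 nM target library at 33 °C single turnover.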", "data": [{"tested_on": "MIWI (PIWIL1) piRISC loaded with piRNA #1 (30 nt)", "assay": "pre-steady-state target cleavage rate (min^-1); MIWI and MILI are mouse PIWI proteins and EfPiwi is from a freshwater sponge; tags in brackets are library labels; higher = faster piRNA-guided slicing of the target", "conditions": "guide: piRNA #1 5'p-UGAGGUAGUAGGUUGUAUAGUAUCCAGAGG; auxiliary factor: 500 nM mouse GTSF1", "summary_of_the_method": "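A transcribed, DNA-blocked target RNA library […] was incubated at 33 °C for 0–8 or 0–960 min with 1 nM active affinity-purified piRISC carrying one synthetic guide, in HEPES–potassium acetate buffer with or without 500 nM GTSF1 partner protein. Uncleaved targets were then sequenced and normalised to depth and to weakly complementary targets. Data from three trials were pooled, with k3 capped at 0.0001 min^-1, and a burst-and-steady-state fit yielded the pre-steady-state cleavage rate.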", "values": [{"sequence": "GGAGAGGAUACUAUACAACCUACUUACCUCA", "pre-steady-state target cleavage rate": "1.18 ± 0.062"}, {"sequence": "GGAGUGGAUACUCAUACAACCUACUACCUCA", "pre-steady-state target cleavage rate": "1.16 ± 0.079"}, {"sequence": "GGAGACGAUACUAUACAACGUACUACGUCA", "pre-steady-state target cleavage rate": "0.354 ± 0.063"}, {"sequence": "GGAGACCAAACUUUACAACCUACUACCUCA", "pre-steady-state target cleavage rate": "0.403 ± 0.082"}, {"sequence": "GGUCUGGAUACUAUACAACCUACUACCUCA [g2:g28:cont:t1A]", "pre-steady-state target cleavage rate": "1.8 ± 0.1"}, {"sequence": "GGAGAGGAUACUAAACAACCUACUUCCUCA", "pre-steady-state target cleavage rate": "0.187 ± 0.03"}, {"sequence": "GGAGACCUAACUAAACAACCUACUACCUCA", "pre-steady-state target cleavage rate": "0.242 ± 0.042"}, {"sequence": "CCUCUGGAUACAAUACUACCUACUACCUCA", "pre-steady-state target cleavage rate": "1.2 ± 0.092"}, {"sequence": "GCUCUGGAUAUCUAUACAACCUACUACCUCA", "pre-steady-state target cleavage rate": "0.861 ± 0.052"}, {"sequence": "GGAGUGGAUACUAUACAACCUUCUACCUGA", "pre-steady-state target cleavage rate": "0.102 ± 0.02"}, {"sequence": "GGAGACCUAUGUAUACUACCUACUACCUCA", "pre-steady-state target cleavage rate": "0.00454 ± 0.0015"}, {"sequence": "GGAGUCGAUACUAUACAUCCUACUACCUCA", "pre-steady-state target cleavage rate": "1.45 ± 0.081"}, {"sequence": "GGAGACCAUACUAUACAACCUACUUGGAGA [g7:g23:cont:t1A]", "pre-steady-state target cleavage rate": "0.0643 ± 0.017"}, {"sequence": "GGAGAGGAUACUAUACAAGCUACAACCUCA", "pre-steady-state target cleavage rate": "0.296 ± 0.04"}, {"sequence": "GGAGACCUAUGUAUACAACCUUCUACCUCA", "pre-steady-state target cleavage rate": "0.0182 ± 0.0029"}, {"sequence": "GGUCUGGAUACUAUUCAACCAACUACCUCA", "pre-steady-state target cleavage rate": "0.0882 ± 0.0072"}, {"sequence": "GGUCUGGAUACUUUACAACCUACUACCACA", "pre-steady-state target cleavage rate": "0.266 ± 0.034"}, {"sequence": "CCACUGGAUACUAUACAACCUACUACCUCA", "pre-steady-state target cleavage rate": "1.8 ± 0.11"}, {"sequence": "GGAGACCUAUGAUAUGAUCCUACUACGUCA", "pre-steady-state target cleavage rate": "< 0.0001"}, {"sequence": "GGAGACCAUACUAUACAACCUACUUGGUCA", "pre-steady-state target cleavage rate": "0.00584 ± 0.0035"}, {"sequence": "GGAGACGAUAGUAUACAUCCUACUACCUCA", "pre-steady-state target cleavage rate": "0.848 ± 0.058"}, {"sequence": "GGAGUCGAUACUAUACUACCUACUACCUCA", "pre-steady-state target cleavage rate": "1.17 ± 0.085"}, {"sequence": "CCACUGGAUACUAUACAAGCUACUACCUCA", "pre-steady-state target cleavage rate": "1.4 ± 0.063"}]}]}
